# Source: the supplement of paper PMC8821664
# Where a name gives a salt, the structure may show the parent alone. Some of the results follow. Repeats are few or missing, and single values can be far off.
# System: Beas-2B AQP5-HiBiT reporter cells
# Assay: AQP5-HiBiT luminescence relative to vehicle (ratio to vehicle); higher = higher AQP5-HiBiT protein abundance
# Details: 10 µM; 18 h
# 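Further: monoclonal Beas-2B line stably carrying CMV promoter-driven AQP5-HiBiT, 5,000 cells per well in 384-well plates, lytic HiBiT plus LgBiT NanoLuc luminescence, FDA-approved drug library screen.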
row,Structure (SMILES),AQP5-HiBiT luminescence
1,COc1cc2c(cc1OC)C1CC(=O)C(CC(C)C)CN1CC2 (centres undefined) [Tetrabenazine],0.652
2,CN1C[C@H](C(=O)N[C@]2(C)O[C@@]3(O)[C@@H]4CCCN4C(=O)[C@H](Cc4ccccc4)N3C2=O)C[C@@H]2c3cccc4[nH]cc(c34)C[C@H]21 [Dihydroergotamine Mesylate],1.2
3,O=P1(NCCCl)OCCCN1CCCl (centres undefined) [Ifosfamide],1.53
4,CN1C[C@H](C(=O)N[C@]2(C)O[C@@]3(O)[C@@H]4CCCN4C(=O)[C@H](Cc4ccccc4)N3C2=O)C=C2c3cccc4[nH]cc(c34)C[C@H]21 [Ergotamine bitartrate],0.85
5,O=C(O)CCCc1ccc(N(CCCl)CCCl)cc1 [Chloroambucil],0.832
6,N.N.[Cl][Pt][Cl] [Cisplatin],1.23
7,Cc1ccc(-c2nc3ccc(C)cn3c2CC(=O)N(C)C)cc1 [Zolpidem],0.764
8,Nc1ccncc1 [4-Aminopyridine],0.949
9,N#Cc1ccccc1-c1cc(-c2ccccn2)cn(-c2ccccc2)c1=O [PeraMpanel],0.478
10,C=C1CC[C@@]2(O)[C@H]3Cc4ccc(O)c5c4[C@@]2(CCN3CC2CC2)[C@H]1O5 [Nalmefene hydrochloride],0.877
11,Oc1cc(Cl)ccc1Oc1ccc(Cl)cc1Cl [Triclosan],0.599
12,CCN(C)C(=O)Oc1cccc([C@H](C)N(C)C)c1 [Rivastigmine tartrate],1.01
13,CN1CCN(C(=O)OC2c3nccnc3C(=O)N2c2ccc(Cl)cn2)CC1 (centres undefined) [Zopiclone],0.908
14,N[C@@H]1C[C@H]1c1ccccc1 [Tranylcypromine (2-PCPA) hydrochloride],0.872
15,CC(O)(CS(=O)(=O)c1ccc(F)cc1)C(=O)Nc1ccc(C#N)c(C(F)(F)F)c1 (centres undefined) [Bicalutamide],0.855
16,NCCCNCCSP(=O)(O)O [Amifostine],1.09
17,Cc1ccc(-n2nccn2)c(C(=O)N2CCN(c3nc4cc(Cl)ccc4o3)CC[C@H]2C)c1 [MK-4305 (Suvorexant)],0.627
18,O=C1CC[C@@]2(O)[C@H]3Cc4ccc(O)c5c4[C@@]2(CCN3CC2CC2)[C@H]1O5 [Naltrexone hydrochloride],1.06
19,CCOC(=O)c1cncn1[C@H](C)c1ccccc1 [Etomidate],1.03
20,C[C@]12CC[C@H]3[C@@H](CCC4=CC(=O)CC[C@@]43C)[C@@H]1CC[C@@H]2O [Testosterone],0.597
21,O=c1[nH]c2ccccc2n1C1CCN(CCCC(c2ccc(F)cc2)c2ccc(F)cc2)CC1 [Pimozide],1.32
22,CCCCCCC(=O)O[C@H]1CC[C@H]2[C@@H]3CCC4=CC(=O)CC[C@]4(C)[C@H]3CC[C@]12C [Testosterone Enanthate],0.693
23,O=C(O[C@H]1C[C@H]2CC[C@@H](C1)[N+]21CCCC1)C(O)(c1ccccc1)c1ccccc1 [Trospium chloride],0.956
24,C=C1C[C@@H]2[C@H](CC[C@]3(C)C(=O)CC[C@@H]23)[C@@]2(C)C=CC(=O)C=C12 [Exemestane],1.15
